Test results taken from the supplement of paper PMC12217912.
The other results are listed elsewhere or left out. Sequences were assembled here from the parent chain. Values near 0.05 are background.

B1: TEV protease; numbered along this chain (parent)
chain: MGESLFKGPRDYNPISSSICHLTNESDGHTTSLYGIGFGPFIITNKHLFRRNNGTLVVQSLHGVFKVKDTTTLQQHLVDGRDMIIIRMPKDFPPFPQKLKFREPQREERICLVTTNFQTKSMSSMVSDTSCTFPSGDGIFWKHWIQTKDGQCGSPLVSTRDGFIVGIHSASNFTNTNNYFTSVPKNFMELLTNQEAQQWVSGWRLNADSVLWGGHKVFMVKPEEPFQPVKEATQL

Variants of: B1
Assay: raw area under fraction-flipped curve 0-4 h after induction (AUC4h, not background-subtracted), DNA-recorder readout of cleavage of the substrate (dimensionless); higher = more cleavage of the substrate by the protease variant
Conditions: temperature: 34 °C; time window: 0-4 h after rhamnose induction
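Further: Bxb1 expression induced with 0.2% (w/v) L-rhamnose at OD600 near 0.5, cultures sampled hourly, flipped fraction per protease–substrate barcode pair counted by paired-end Illumina sequencing.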

Variant	area with substrate ENLDFQS	area with substrate ENLEFQS	area with substrate ENLHFQS	area with substrate ENLKFQS	area with substrate ENLLFQS	area with substrate ENLNFQS	area with substrate ENLRFQS	area with substrate ENLSFQS	area with substrate ENLVFQS	area with substrate ENLFFQS	area with substrate ENLIFQS	area with substrate ENLMFQS	area with substrate ENLWFQS	area with substrate ENLPFQS	area with substrate ENLQFQS	area with substrate ENLTFQS	area with substrate ENLGFQS
MGESLFKGPRDYNPISSSICHLTNESDGHTTSLYGIGFGPFIITNKHLFRRNNGTLVVQSLHGVFNVKDTTTLQQHLVDGRDMIIIRMPKDFPPFPQKLKFREPQREERICLVTTNFQTKSMSSMVSDTSCTFPSGDGIFWKHWIQTKDGQCGSPLVSTRDGFIVGIHSASNFTNTNNYFTSVPKNFMELLTNQEAQQWVSGWRLNADSVLWGGHKVFMVKPEEPFQPVKEATQL [K66N]	0.0515	0.0539	0.0563	0.0758	0.0717	0.0583	0.0805	0.0507	0.0976								
MGESLFKGPRDYNPISSSICHLTNESDGHTTSLYGIGFGPFIITNKHLFRRNNGALVVQSLHGVFKVKDTTTLQQHLVDGRDMIIIRMPKDFPPFPQKLKFREPQREERICLVTTNFQTKSMSSMVSDTSCTFPSGDGIFWKHWIQTKDGQCGSPLVSTRDGFIVGIHSASNFTNTNNYFTSVPKNFMELLTNQEAQQWVSGWRLNADSVLWGGHKVFMVKPEEPFQPVKEATQL [T55A]	0.0625	0.0645	0.0862			0.0366				0.0784	0.0807	0.0679	0.0782				
MGESLFKGPRDYNPISSSICHLTNESDGHTTSLYGIGFGPFIITNKHLFRRLNGTLVVQSLHGVFKVKDTTTLQQHLVDGRDMIIIRMPKDFPPFPQKLKFREPQREERICLVTTNFQTKSMSSMVSDTSCTFPSGDGIFWKHWIQTKDGQCGSPLVSTRDGFIVGIHSASNFTNTNNYFTSVPKNFMELLTNQEAQQWVSGWRLNADSVLWGGHKVFMVKPEEPFQPVKEATQL [N52L]	0.0599	0.0662	0.0656	0.0707	0.0513	0.0613	0.0583	0.0524	0.0662		0.0297	0.0535	0.0543	0.0603	0.0514		
MGESLFKGPRDYNPISSSICHLTNESDGHTTSLYGIGFGPFIITNKHLFRRNNETLVVQSLHGVFKVKDTTTLQQHLVDGRDMIIIRMPKDFPPFPQKLKFREPQREERICLVTTNFQTKSMSSMVSDTSCTFPSGDGIFWKHWIQTKDGQCGSPLVSTRDGFIVGIHSASNFTNTNNYFTSVPKNFMELLTNQEAQQWVSGWRLNADSVLWGGHKVFMVKPEEPFQPVKEATQL [G54E]	0.0596	0.0595	0.0484	0.0636	0.0569	0.0639	0.0568	0.0357	0.07	0.0641	0.0684			0.057	0.0449		
MGESLFKGPRDYNPISSSICHLTNESDGHTTSLYGIGFGPFIITNKHLFRRNNGTLVVQSLHGVFKVKDTGTLQQHLVDGRDMIIIRMPKDFPPFPQKLKFREPQREERICLVTTNFQTKSMSSMVSDTSCTFPSGDGIFWKHWIQTKDGQCGSPLVSTRDGFIVGIHSASNFTNTNNYFTSVPKNFMELLTNQEAQQWVSGWRLNADSVLWGGHKVFMVKPEEPFQPVKEATQL [T71G]	0.0675	0.0561	0.0668	0.0667		0.0717	0.0698			0.0702	0.074			0.0584	0.0598	0.0615	
MGESLFKGPRDYNPISSSICHLTNESDGHTTSLYGIGFGPFIITNKHLFRRNNGTLVVQSLHGVFKVKDTQTLQQHLVDGRDMIIIRMPKDFPPFPQKLKFREPQREERICLVTTNFQTKSMSSMVSDTSCTFPSGDGIFWKHWIQTKDGQCGSPLVSTRDGFIVGIHSASNFTNTNNYFTSVPKNFMELLTNQEAQQWVSGWRLNADSVLWGGHKVFMVKPEEPFQPVKEATQL [T71Q]	0.0623		0.0794	0.0825			0.0694			0.0927				0.0602		0.0927	
MGESLFKGPRDYNPISSSICHLTNESDGHTTSLYGIGFGPFIITNKHLFRRNNGTLVVLSLHGVFKVKDTTTLQQHLVDGRDMIIIRMPKDFPPFPQKLKFREPQREERICLVTTNFQTKSMSSMVSDTSCTFPSGDGIFWKHWIQTKDGQCGSPLVSTRDGFIVGIHSASNFTNTNNYFTSVPKNFMELLTNQEAQQWVSGWRLNADSVLWGGHKVFMVKPEEPFQPVKEATQL [Q59L]	0.056			0.0932			0.0889	0.0565	0.0823	0.0852							
MGESLFKGPRDYNPISSSICHLTNESDGHTTSLYGIGFGPFIITNKHLFRRNNGTLVVDSLHGVFKVKDTTTLQQHLVDGRDMIIIRMPKDFPPFPQKLKFREPQREERICLVTTNFQTKSMSSMVSDTSCTFPSGDGIFWKHWIQTKDGQCGSPLVSTRDGFIVGIHSASNFTNTNNYFTSVPKNFMELLTNQEAQQWVSGWRLNADSVLWGGHKVFMVKPEEPFQPVKEATQL [Q59D]	0.0476					0.0639		0.0503		0.11	0.0837	0.0625		0.0476			
MGESLFKGPRDYNPISSSICHLTNESDGHTTSLYGIGFGPFIITNKHLFRRNNGTLVVQSLHGVFKNKDTTTLQQHLVDGRDMIIIRMPKDFPPFPQKLKFREPQREERICLVTTNFQTKSMSSMVSDTSCTFPSGDGIFWKHWIQTKDGQCGSPLVSTRDGFIVGIHSASNFTNTNNYFTSVPKNFMELLTNQEAQQWVSGWRLNADSVLWGGHKVFMVKPEEPFQPVKEATQL [V67N]	0.0653			0.0501				0.0272		0.0615	0.0581		0.0507				
MGESLFKGPRDYNPISSSICHLTNESDGHTTSLYGIGFGPFIITNKHLFRRNNGTLVVQSLHGVFKVKDTTTCQQHLVDGRDMIIIRMPKDFPPFPQKLKFREPQREERICLVTTNFQTKSMSSMVSDTSCTFPSGDGIFWKHWIQTKDGQCGSPLVSTRDGFIVGIHSASNFTNTNNYFTSVPKNFMELLTNQEAQQWVSGWRLNADSVLWGGHKVFMVKPEEPFQPVKEATQL [L73C]	0.0647	0.0644	0.0628	0.079		0.0597	0.056	0.0717	0.0688	0.0644	0.059			0.0622			0.067
